# Variants at the floor of the assay are shown more often than the library holds them.
# B1: TPR 5TU (parent)
# chain: GGAUCUUCUCGAUCUAACAAAAAAGACAAAUCUGCCACAAAGCUUGAGAGCAUCUUCGGAUGCAGAGGCGGCAGCCUUCGGUGGCGCGAUAGCGCCAACGUUCUCAACUAUGACACGCAAAACGCGUGCUCCGUUGAAUGGAGUUUAUCAUG
# Variants of: B1
# Assay: polymerase ribozyme fitness, log enrichment relative to wild type (log ratio); higher = more active; in vitro selection for triplet polymerase activity
# Method in brief: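 In triplicate, a single round of in vitro selection was run on each mutant library, PCR-built and transcribed, covering one subunit of a heterodimeric triplet polymerase ribozyme. Frozen incubation at −7 °C followed annealing with a biotinylated primer, partner subunit and triplets, and extended constructs were then gel-excised, streptavidin-captured and taken through RT-PCR. Fitness is the logarithm of genotype enrichment over wild-type enrichment, from inverse-variance-weighted replicate averages of Illumina-sequenced inputs and outputs. […] only genotypes with ≥10 input reads and ≥1 read per output were kept.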
row,Variant,polymerase ribozyme fitness (log ratio)
1,C5U U53A C75U G88C,≤ -4.2
2,U6A G68A G83C U90G C118U,≤ -4.2
3,C5U U55G C79G C87A A97U A106C,≤ -4.2
4,U6A A49G U55G A73C C93A C99G,≤ -4.2
5,U6C U9A C36G C96G U145C G152A,≤ -4.2
6,C5U G34A A49C C57A C75U C93A C118G A122C C123A,≤ -4.2
7,U6C C129G,-3.13
8,U6A G42A G50C C93U,≤ -4.2
9,U6G C72U U90G C93U,≤ -4.2
10,U6G A23U C123U G141U,≤ -4.2
11,U6G A39U A47G C99G,≤ -4.2
12,U6A C18G U56A A106G,-0.358
13,U6G A41C A49G C95G,-2.03
14,C5U U9G A19U A29U G92A U104G,≤ -4.2
15,U6C U7G A40C A52G C85U G100C G117U C118U,≤ -4.2
16,C5U U33A C38U C57G C93U A98U,≤ -4.2
17,C5U C87U G94C,-2.15
18,U6G A19G C69G G88U C99G U145G,≤ -4.2
19,U6A A29C U44A U56A C76A C95U,≤ -4.2
20,U6C C8G U13G A29U U31A G74C U146A U148G U151G,≤ -4.2
21,U6C A19C G34A G59U A91G G141A,≤ -4.2

row,Variant,polymerase ribozyme fitness (log ratio)
1,U6A C10A U31A A49C U53A C76G G81A G92A A106G G117A,≤ -4.2
2,C5U U6G C8U C54U U61A C96U A121C G133U,≤ -4.2
3,U6G G59C,0.358
4,U6A A49U A60U C69G C75G A142G U148G,≤ -4.2
5,U6A U7A C14G A41G G86C,≤ -4.2
6,U6G C8G,-3.65
7,U6A C14U A41U G48U,-3.87
8,U6G C54U G81A U135G,-3.31
9,U6C U82A C99U G136U,-3.43
10,U6G C35U U61G A97G C125A,≤ -4.2
11,U6G A19G C87A G94C G124U A150C,≤ -4.2
12,U6C A19G C57A A64C,≤ -4.2
13,U6G C87U,-0.579
14,U6G C18U A37C A64U G81A G83A A98U G117A C123G,≤ -4.2
15,U6G A28U G58A A73G G126A,≤ -4.2
16,U6C C38U C75G U82A A107G A120G G133A U134A,≤ -4.2
17,U6C C87A G94A U148A,≤ -4.2
18,U6G C14A C36U G58U C76U C85U A121U U135C,≤ -4.2
19,U6C A16U A23C C87A C93U U135C A137C,≤ -4.2
20,U6A G50A A89U G92U A137G,-3.34
21,U6A A37U G124A G126C,-2.83

row,Variant,polymerase ribozyme fitness (log ratio)
1,U6G G50U C95U,0.0133
2,U6A A16G U148G,≤ -4.2
3,U6A G50C C54A C79U C116U G126A,≤ -4.2
4,U6C A22U A26U G84A U144A,-4.15
5,U6A G11U A23C G25A C36A G50C C125U,≤ -4.2
6,U6A A12U A28U U90G C99U C105A,≤ -4.2
7,C5U U82A C103G A113U A137C U148A,≤ -4.2
8,C5U C38U C54U G94U A115U A119G G136U A147U,-3.8
9,U6A A30C G58C A60U C76G A106U C149G,≤ -4.2
10,U6C C10A U13A C35G C36G A37G G81U G83C,≤ -4.2
11,C5U G84A A150C,≤ -4.2
12,C5U C93U,0.375
13,C5U G74A A91U C93G,≤ -4.2
14,U6A C87G,≤ -4.2
15,U6C A20C A22G C51U C93G C99U C103G A150C,≤ -4.2
16,U6G G68A,-3.62
17,U6G C93G,-3.18
18,U6G G48C A52G C96A A121U G140A,≤ -4.2
19,U6A A16C A20G G62C A91U A110U,≤ -4.2
20,C5U U7G A17U A52G C57A G140U,≤ -4.2
21,U6A G50C A52C,≤ -4.2

row,Variant,polymerase ribozyme fitness (log ratio)
1,U6A C93U,-1.6
2,C5U U13A C57G G141U,-1.34
3,C5U C96U,0.36
4,C5U C96A,0.48
5,U6A C27G C72A G94C C116G,≤ -4.2
6,U6C C105G U144C G152A,-3.94
7,U6G A12G A16U A41U U61A G84U U127G U134C A147C,≤ -4.2
8,U6C A16U U111A A113G,≤ -4.2
9,U6G C8U A20U G94C A121U U127C,≤ -4.2
10,U6G G11A A24U U53A G92U C93G C108U A115U,≤ -4.2
11,C5U U15G A19U C35A G68A C85U C108A,≤ -4.2
12,U6C U7G A66G C108U,≤ -4.2
13,U6A U13C A20U A22U U102C C108U A110C A137C,≤ -4.2
14,U6C G50A G94A A113C U145A,≤ -4.2
15,U6A C14A C32U G74A A138C,≤ -4.2
16,U6G G88A,-4.11
17,U6A A22U A37U C51A U55A C79A G92C A107G A115U A142G,≤ -4.2
18,U6C C8U A17U A39G G83A U101A,≤ -4.2
19,U6C C18G A28C U45G G59A G65A A73C A91U G94C,≤ -4.2
20,U6A A21U C76A G86U,-2.79
